# The supplement of paper PMC8728848
# Some of the results follow.
# Key:
# Experiment in all cases: glycan array binding signal (z-score within array); higher = stronger binding
# Details in all cases: glycan notation: IUPAC condensed, linker removed
# [1] = target: Neu5Ac(a2-6)Gal(b1-4)GlcNAc(b1-3)Gal(b1-4)GlcNAc(b1-3)Gal(b1-4)GlcNAc(b1-2)Man(a1-3)[Neu5Ac(a2-6)Gal(b1-4)GlcNAc(b1-3)Gal(b1-4)GlcNAc(b1-3)Gal(b1-4)GlcNAc(b1-2)Man(a1-6)]GalNAc
# How it was run: (§1)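 Glycan array binding is given as a within-array Z-score, which can be read as non-binding when negative. The arrays, 3228 of them, came from the Consortium for Functional Glycomics database and were retained only where the protein sequence was available. Z-scores were averaged across arrays of the same protein sequence at different concentrations or buffers and across linkers.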
# [2] = target: Neu5Ac(a2-6)Gal(b1-4)GlcNAc(b1-3)Gal(b1-4)GlcNAc(b1-3)GalNAc
# How it was run: as §1
# [3] = target: Neu5Ac(a2-6)Gal(b1-4)GlcNAc(b1-3)Gal(b1-4)GlcNAc(b1-3)[Neu5Ac(a2-6)Gal(b1-4)GlcNAc(b1-3)Gal(b1-4)GlcNAc(b1-6)]GalNAc
# How it was run: as §1
# [4] = target: Neu5Ac(a2-6)Gal(b1-4)GlcNAc(b1-3)Gal(b1-4)GlcNAc(b1-6)[Gal(b1-3)]GalNAc
# How it was run: as §1
# [5] = target: Neu5Ac(a2-6)Gal(b1-4)GlcNAc(b1-3)Gal(b1-4)[Fuc(a1-3)]GlcNAc(b1-3)Gal(b1-4)[Fuc(a1-3)]GlcNAc
# How it was run: as §1
# [6] = target: Neu5Ac(a2-6)Gal(b1-4)GlcNAc(b1-3)GalNAc
# How it was run: as §1
# [7] = target: Neu5Ac(a2-6)Gal(b1-4)GlcNAc(b1-3)[Neu5Ac(a2-6)Gal(b1-4)GlcNAc(b1-6)]GalNAc
# How it was run: as §1
# [8] = target: Neu5Ac(a2-6)Gal(b1-4)GlcNAc(b1-6)GalNAc
# How it was run: as §1
# [9] = target: Neu5Ac(a2-6)Gal(b1-4)GlcNAc(b1-6)[Gal(b1-3)GlcNAc(b1-3)]Gal(b1-4)Glc
# How it was run: as §1
# [10] = target: Neu5Ac(a2-6)Gal(b1-4)GlcNAc(b1-6)[Gal(b1-3)]GalNAc
# How it was run: as §1
# [11] = target: Neu5Ac(a2-6)Gal(b1-4)GlcNAc6S
# How it was run: as §1
# Neu5Ac(a2-6)GalNAc = target: Neu5Ac(a2-6)GalNAc
# How it was run: as §1
# [12] = target: Neu5Ac(a2-6)GalNAc(b1-4)GlcNAc
# How it was run: as §1
# [13] = target: Neu5Ac(a2-6)GalNAc(b1-4)GlcNAc6S
# How it was run: as §1
# [14] = target: Neu5Ac(a2-6)GlcNAc(b1-4)GlcNAc
# How it was run: as §1
# [15] = target: Neu5Ac(a2-6)GlcNAc(b1-4)GlcNAc(b1-4)GlcNAc
# How it was run: as §1
# Neu5Ac(a2-8)Neu5Ac = target: Neu5Ac(a2-8)Neu5Ac
# How it was run: as §1
# [16] = target: Neu5Ac(a2-8)Neu5Ac(a2-3)Gal(b1-3)GalNAc(b1-4)[Neu5Ac(a2-3)]Gal(b1-4)Glc
# How it was run: as §1
# [17] = target: Neu5Ac(a2-8)Neu5Ac(a2-3)Gal(b1-3)GalNAc(b1-4)[Neu5Ac(a2-8)Neu5Ac(a2-3)]Gal(b1-4)Glc
# How it was run: as §1
# [18] = target: Neu5Ac(a2-8)Neu5Ac(a2-3)Gal(b1-4)Glc
# How it was run: as §1
# [19] = target: Neu5Ac(a2-8)Neu5Ac(a2-3)Gal(b1-4)GlcNAc
# How it was run: as §1
# [20] = target: Neu5Ac(a2-8)Neu5Ac(a2-3)[Gal(b1-3)GalNAc(b1-4)]Gal(b1-4)Glc
# How it was run: as §1
# [21] = target: Neu5Ac(a2-8)Neu5Ac(a2-3)[GalNAc(b1-4)]Gal(b1-4)Glc
# How it was run: as §1
# [22] = target: Neu5Ac(a2-8)Neu5Ac(a2-8)Neu5Ac
# How it was run: as §1
# [23] = target: Neu5Ac(a2-8)Neu5Ac(a2-8)Neu5Ac(a2-3)Gal(b1-4)Glc
# How it was run: as §1
# [24] = target: Neu5Ac(a2-8)Neu5Ac(a2-8)Neu5Ac(a2-3)[Gal(b1-3)GalNAc(b1-4)]Gal(b1-4)Glc
# How it was run: as §1
# [25] = target: Neu5Ac(a2-8)Neu5Ac(a2-8)Neu5Ac(a2-3)[GalNAc(b1-4)]Gal(b1-4)Glc
# How it was run: as §1
# [26] = target: Neu5Ac(a2-8)Neu5Ac(a2-8)Neu5Ac(a2-8)Neu5Ac(a2-3)[GalNAc(b1-4)]Gal(b1-4)Glc
# How it was run: as §1
# [27] = target: Neu5Ac(a2-8)Neu5Gc(a2-3)Gal(b1-4)GlcNAc
# How it was run: as §1
# [28] = target: Neu5Ac(b2-6)Gal(b1-4)GlcNAc
# How it was run: as §1
# Neu5Ac(b2-6)GalNAc = target: Neu5Ac(b2-6)GalNAc
# How it was run: as §1
# [29] = target: Neu5Ac9Ac(a2-3)Gal(b1-3)GlcNAc
# How it was run: as §1
# [30] = target: Neu5Ac9Ac(a2-3)Gal(b1-4)GlcNAc
# How it was run: as §1
# [31] = target: Neu5Ac9Ac(a2-6)Gal(b1-4)GlcNAc
# How it was run: as §1
# [32] = target: Neu5Gc(a2-3)Gal(b1-3)GlcNAc
# How it was run: as §1
# [33] = target: Neu5Gc(a2-3)Gal(b1-3)[Fuc(a1-4)]GlcNAc
# How it was run: as §1
# Neu5Gc(a2-3)Gal(b1-4)Glc = target: Neu5Gc(a2-3)Gal(b1-4)Glc
# How it was run: as §1
# [34] = target: Neu5Gc(a2-3)Gal(b1-4)GlcNAc
# How it was run: as §1
# [35] = target: Neu5Gc(a2-3)Gal(b1-4)GlcNAc(b1-3)Gal(b1-4)GlcNAc(b1-2)Man(a1-3)[Neu5Gc(a2-3)Gal(b1-4)GlcNAc(b1-3)Gal(b1-4)GlcNAc(b1-2)Man(a1-6)]Man(b1-4)GlcNAc(b1-4)GlcNAc
# How it was run: as §1
# [36] = target: Neu5Gc(a2-3)Gal(b1-4)[Fuc(a1-3)]GlcNAc
# How it was run: as §1
# [37] = target: Neu5Gc(a2-6)Gal(b1-4)GlcNAc
# How it was run: as §1
# Neu5Gc(a2-6)GalNAc = target: Neu5Gc(a2-6)GalNAc
# How it was run: as §1
# [38] = target: Neu5Gc(a2-8)Neu5Ac(a2-3)Gal(b1-4)GlcNAc
# How it was run: as §1
# [39] = target: Neu5Gc(a2-8)Neu5Gc(a2-3)Gal(b1-4)GlcNAc
# How it was run: as §1
# [40] = target: Neu5Gc(a2-8)Neu5Gc(a2-3)Gal(b1-4)GlcNAc(b1-3)Gal(b1-4)GlcNAc
# How it was run: as §1
# [41] = target: Neu5Gc(a2-8)Neu5Gc(a2-6)Gal(b1-4)GlcNAc
# How it was run: as §1
# [42] = target: Neu5Gc(b2-6)Gal(b1-4)GlcNAc
# How it was run: as §1
binder,measurement,setting,value
"MSMEG3662-2a (Mycobacterium smegmatis), A0QYH7_MYCS2 (protein) MGDTLTAGQKLERGGSLQSGNGAYTLTLQDDGNLVLYARDKAVWSTGTNGQDVVRAEVQTDGNFVLYTAEKPVWHTDTKGKKEVKLVLQDDRNLVLYAKDGPAWSSKTDTTEPPPPAPEPEKEAEVAPAAAEEAAPAPVAEPAPAEPAPAAPPPAPPAPRTYTVVSGDTLWAIAERFYGDGSKYQQIADASGIANPDLIHPGQVLTIP",glycan array binding signal (z-score),[1],0.293
same,glycan array binding signal (z-score),[2],0.076
same,glycan array binding signal (z-score),[3],-0.017
same,glycan array binding signal (z-score),[4],-0.189
same,glycan array binding signal (z-score),[5],-0.129
same,glycan array binding signal (z-score),[6],-0.179
same,glycan array binding signal (z-score),[7],-0.088
same,glycan array binding signal (z-score),[8],-0.052
same,glycan array binding signal (z-score),[9],0.089
same,glycan array binding signal (z-score),[10],0.051
same,glycan array binding signal (z-score),[11],-0.15
same,glycan array binding signal (z-score),Neu5Ac(a2-6)GalNAc,-0.07
same,glycan array binding signal (z-score),[12],0.165
same,glycan array binding signal (z-score),[13],-0.183
same,glycan array binding signal (z-score),[14],-0.058
same,glycan array binding signal (z-score),[15],1.58
same,glycan array binding signal (z-score),Neu5Ac(a2-8)Neu5Ac,-0.128
same,glycan array binding signal (z-score),[16],-0.195
same,glycan array binding signal (z-score),[17],0.097
same,glycan array binding signal (z-score),[18],-0.086
same,glycan array binding signal (z-score),[19],-0.085
same,glycan array binding signal (z-score),[20],-0.055
same,glycan array binding signal (z-score),[21],-0.084
same,glycan array binding signal (z-score),[22],-0.147
same,glycan array binding signal (z-score),[23],-0.07
same,glycan array binding signal (z-score),[24],-0.176
same,glycan array binding signal (z-score),[25],-0.078
same,glycan array binding signal (z-score),[26],-0.17
same,glycan array binding signal (z-score),[27],0.105
same,glycan array binding signal (z-score),[28],-0.019
same,glycan array binding signal (z-score),Neu5Ac(b2-6)GalNAc,-0.023
same,glycan array binding signal (z-score),[29],-0.178
same,glycan array binding signal (z-score),[30],-0.051
same,glycan array binding signal (z-score),[31],-0.225
same,glycan array binding signal (z-score),[32],-0.187
same,glycan array binding signal (z-score),[33],-0.18
same,glycan array binding signal (z-score),Neu5Gc(a2-3)Gal(b1-4)Glc,-0.093
same,glycan array binding signal (z-score),[34],-0.059
same,glycan array binding signal (z-score),[35],0.118
same,glycan array binding signal (z-score),[36],0.023
same,glycan array binding signal (z-score),[37],-0.02
same,glycan array binding signal (z-score),Neu5Gc(a2-6)GalNAc,-0.074
same,glycan array binding signal (z-score),[38],-0.087
same,glycan array binding signal (z-score),[39],-0.11
same,glycan array binding signal (z-score),[40],-0.195
same,glycan array binding signal (z-score),[41],-0.118
same,glycan array binding signal (z-score),[42],-0.051
